From the supplement of paper PMC11417369
± gives the standard deviation of the averaged measurements. This is one part of the list.

Each sequence was assayed on PfAP2-LT AP2 domain (GST-tagged) (assay: gcPBM binding intensity (ln(normalized median fluorescence intensity)); higher = stronger DNA binding).
How it was run: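 DNA-binding domains from P. falciparum, fused to GST and produced in E. coli, were put on an Agilent 4 × 180k double-stranded probe array for 1 h in 1× PBS holding 1% milk, 0.2 mg/ml BSA, 0.5% salmon testes DNA and 0.03% Triton X-100. Probes were primer-extended, 36 bp long and drawn from intergenic genomic regions, with negative controls included. After Alexa488 anti-GST antibody detection and a 488 nm scan, binding intensity was set as the highest Masliner-normalised natural-log median intensity across replicate spots of either probe orientation.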

Sequence	gcPBM binding intensity (ln)
TATAAGTGCCGTTATACACACGTTATATAAATATTA [CACACA_site4401]	8.81 ± 0.4
ATAATTATATTTAGTGGTACTACTTTTGATAATTAG [XGTACX_site6562]	8.63 ± 0.42
TGTAATATATGTATTGCACACCTATAACCATTATTT [CACACA_site8422]	9.05 ± 0.32
GATGAATAATATGTATGTACATATGCATTATGATGT [XGTACX_site7655]	9.03 ± 0.38
ATATGCACTTTTTGCACACGTATGAATAACAAAATA [CACACA_site1810]	9.09 ± 0.33
ACATATAGATAAATATGTACATATATATATATATAT [XGTACX_site1806]	9.74 ± 0.2
AAATGTGAAAAAGAGTGTACCCGACTTGAAATTAAG [XGTACX_site8621]	8.96 ± 0.42
AGTAGAATATCCCCTACACACCCAAGTAATTTACAA [CACACA_site6708]	9.29 ± 0.33
AATTAAAAGTGAAGAGTGCATAGAATTTTTTACTTT [GTGCAC_site9973]	8.61 ± 0.54
TTTAATTTTCAATGGCGTACATATAAAATATTATAT [XGTACX_site1672]	8.62 ± 0.32
ATATAAGTATATCTATGTACATACAATATAAATGTA [XGTACX_site2153]	8.81 ± 0.49
TATATACATACATATTGTACTTATAAAGATTAATTT [XGTACX_site2203]	8.57 ± 0.37
TTTTAAAAAAAAAAAAAATAAGATAAAATTAAATAA [GTGCAC_negctrl_site367]	8.06 ± 0.51
ATAAAAAATATCACATAAAATAAAAAAAGAAAGGAT [XGTACX_negctrl_site294]	9 ± 0.59
TATATATAAAAATATACACACTGTATTATTGTAATA [CACACA_site5959]	8.71 ± 0.4
TATATATATACAGTAGTGCATATATTTAAAATATAT [GTGCAC_site9999]	8.8 ± 0.45
ATATATAAAAATAAATGTACATATTCATATGATGAT [XGTACX_site3411]	8.86 ± 0.46
ATAGGATATTATTCCTGTACATATATATATATATAT [XGTACX_site2108]	9.58 ± 0.24
GACAATTATATGTAGGTGCATATACAAATTTTTTAA	8.85 ± 0.45
AATAGTTATTCCAGGTGTACATAACATATAATTTAC [XGTACX_site1340]	8.79 ± 0.42
ATCAAAAGAAGACACACACACATACCTATAAATATA [CACACA_site7736]	9.89 ± 0.33
TTATTATTATTACTTACGCACACTTTTTTTTTTATT [CACACA_site411]	9.08 ± 0.52
ATATATATATATATATGTACATACAATTATATTCTC [XGTACX_site1133]	9.82 ± 0.25

Sequence	gcPBM binding intensity (ln)
AATCTTCTTAATTGTAGTACACAATTTATAAACAAA [XGTACX_site8706]	8.49 ± 0.52
TACATAAATTTTAATACATGCAAATAAAATATATAA [TGCATGCA_site131]	8.62 ± 0.31
AAAAATCATTTAAGAACACACAAATATTTCCATTAA [CACACA_site1488]	8.65 ± 0.48
AAAAAAAAAAAAAACACACACACATAGACCTCCAAT [CACACA_site3563]	10.2 ± 0.26
ATAACGAACACTATTACACACATACATACATATGTA [CACACA_site5092]	9.3 ± 0.29
TTTTTTGTTACAACAGTGCAAAAAAACCTTAATGTT	8.51 ± 0.49
AAATGACTATATAAAAGTACTAGAAAGTATAAATAT [XGTACX_site944]	8.95 ± 0.5
AAAATACACGATAGTTGTACATTAAATGTATACAAT [XGTACX_site360]	9.12 ± 0.39
CATCCGTTGATATATGCATGCATATTGTTATTACCA [TGCATGCA_site868]	9.11 ± 0.36
TCTAATACACAATGTTGTACATATTAATATATATGT [XGTACX_site2931]	8.88 ± 0.43
ATCATTCTTAAACCGTGTACTTATTATTTTTTTTTT [XGTACX_site2798]	8.85 ± 0.54
TATAAAGATATAAATGCACACGTATTAAAAAAAAAA [CACACA_site8223]	9.05 ± 0.41
CCTCTCATTTTATATAGTACATATTTCAAAAAAAAA [XGTACX_site488]	8.12 ± 0.35
GCATATATGGATATATAGGTATATATAAATGCAATA [GTGCAC_negctrl_site24]	8.93 ± 0.51
AGGAGGATAGTTCACAGTACCCAGTAACTCTACGGA [XGTACX_site1997]	8.77 ± 0.52
ATATAAAAAAAAAATTGTACAAAAATATATACATAT [XGTACX_site469]	8.87 ± 0.43
GCATATTTTCCCTGTGAATAAAGTTTTTTTTTTTAT [XGTACX_negctrl_site87]	8.6 ± 0.52
AAGGTATAGAAACACACACACGTGAATATAGTTTAA [CACACA_site5109]	9.53 ± 0.39
TATATATGTATATATTGTACTTTAAGACAAATATAT [XGTACX_site1052]	8.54 ± 0.37
TTCTTAAATATATTCAACATACATAATATATAATCT [CACACA_negctrl_site1806]	8.43 ± 0.54
AATATTTTTCAATTTCATGTGCATTCATTGAAGTTA [CACACA_negctrl_site1232]	8.64 ± 0.4
TATATAACATATATATGTACACATAATATCAGATTT [XGTACX_site1041]	8.88 ± 0.43
CGTTATATAATAAAGGTGCATAGATATATCATTATA [GTGCAC_site9774]	8.71 ± 0.45

Sequence	gcPBM binding intensity (ln)
ATATAAAAAAGGGAGGTAAATGAATGTGAAACCCAA [GTGCAC_negctrl_site359]	8.85 ± 0.44
TTTTAATTAGTACAAACACACATATACACCCAAAAA [CACACA_site5422]	9.12 ± 0.27
CTAATATAGGTATGCACACACAATATGTACATATTT [CACACA_site7558]	9.55 ± 0.39
TAATTTTTTTTAAACACACACATTACATTCAAAAAT [CACACA_site127]	8.94 ± 0.4
TTTCAAATATATATAGCACACAAGGTATAATATAAA [CACACA_site877]	8.83 ± 0.44
TTCACTAATAAATACGCACACATATACATATATATA [CACACA_site1383]	9.08 ± 0.38
TAATTGTAGACATGCACACACAAATATTATATATGT [CACACA_site845]	9.41 ± 0.33
TATTTTTTACATTCGTGTACGCATTTTTGTGAATTT [XGTACX_site5339]	8.98 ± 0.5
ACAAAAATATTTGTAAAAAGAAATATAAATAAATAA [TGCATGCA_negctrl_site357]	8.5 ± 0.49
AAAAATAGAGCAGCTCTCATATTTTTATGTGCAATA [CACACA_negctrl_site837]	8.59 ± 0.38
AGGATATATTATATGTACACACACATATAAGGGATT [GTGCAC_negctrl_site47]	9.45 ± 0.37
TATTACACACAATATTGTACACATAGGAAAAATATT [XGTACX_site1726]	9.16 ± 0.38
GCATTTATGAAAAATGTACACACATCAAATGCTTAT [CACACA_site9347]	8.98 ± 0.34
TATTTTATTTTTTGTTGTACATATATATTATATATA [XGTACX_site4513]	8.78 ± 0.49
ATATGTAAAATATGGTGTACAATCAAATAAAAAAAA [XGTACX_site6270]	8.99 ± 0.49
ATTAATATATTTACCACACACCCATTTCGATTTTAT [CACACA_site3605]	9.18 ± 0.34
AATATATATATATATCCACACACATACATATATTAA [CACACA_site7907]	9.36 ± 0.28
TACATAAAAATATATGCATGTTCTTATTTAATAAAA [TGCATGCA_site743]	8.29 ± 0.39
ATGGTTTTTATTTTATGTACTTACTAAAATGAATAA [XGTACX_site4317]	8.52 ± 0.37
AAAATATTATTACAGAAACAAAAAGAAAAATATATA [GTGCAC_negctrl_site285]	8.6 ± 0.55
GAATATGTTAACATTTGTACATAAAATTTTTTACAA [XGTACX_site2444]	8.48 ± 0.38
GATATATTACTTAAAATACACACCATGGAAAAGTTT [CACACA_site2606]	8.9 ± 0.45
ATGTTTAAATTTTTCAGTACATATATTCTAGTAAAA [XGTACX_site1010]	8.38 ± 0.38

Sequence	gcPBM binding intensity (ln)
ACTATATTTCATAACAGTACATATTCCTGAAACATC [XGTACX_site4924]	8.79 ± 0.39
ACAATATAAAAAAATTGTACATAATATATAATATTA [XGTACX_site1040]	8.61 ± 0.52
CATGCTTATATGTGCACACACAAAAGAAAAGAAAAA [CACACA_site1655]	9.56 ± 0.51
TGTTACATAAAATGCACACTTTCAAATATGCTAATA [CACACA_site2925]	8.65 ± 0.31
TATAAGCTAAGTTGTTGTACAAAAAGGAAAAGTATA [XGTACX_site3741]	9.05 ± 0.65
AAAAAAATCTCCAGTGTGCACAATCACATAATATAT [GTGCAC_site9833]	9.27 ± 0.47
GAGATAAAATAAAACACACACATATATATATAGAAT [CACACA_site2197]	9.54 ± 0.33
TATACGTATTTTATATGTACACATATACATATTTAT [XGTACX_site5301]	9.15 ± 0.48
TTTTCTTTTAAGTTTGTTTTACACTTTTTATTTTGA [CACACA_negctrl_site1581]	8.71 ± 0.68
AATATATGGTTTCATGATATTAAATTCAATTTAATG [GTGCAC_negctrl_site370]	8.4 ± 0.36
AAATATAAATATACTCGTACATATATATATATATAT [XGTACX_site6940]	9.47 ± 0.26
ATATATATATATAGTAGTACTCTCTCTGTATATATA [XGTACX_site3754]	9.29 ± 0.057
ATTTAGAAAAATAAAACACACATATATCTGTAAATA [CACACA_site6119]	9.13 ± 0.35
TTCCTTTGTTGTCGTTGTACTTATATGGTTATAATT [XGTACX_site3082]	9.11 ± 0.36
TATACATAAAAAAATTTTACCAGGTTAATACAAATA [CACACA_negctrl_site1171]	8.57 ± 0.42
TACCTTATGTTATATACACACATATAACATAATATA [CACACA_site6741]	8.96 ± 0.36
AATTAGACATAATATACACACATATATTATATATAT [CACACA_site2691]	9.02 ± 0.45
TTCAAAAGATATATCGTGCACATATATATGATGAAA	8.88 ± 0.47
ATTTTTTTGGAATTCACACACAAAAAAAAAAATAAA [CACACA_site2081]	8.79 ± 0.47
TCCACACAATTTATAACATGCAAAAAGGCAATAATA [TGCATGCA_site773]	8.74 ± 0.47
